Laboratory results published in patent US11542261B2, “Substituted Imidazo[1,2-a]-pyridines as IRAK 1/4 and FLT3 inhibitors” (CHILDREN'S HOSPITAL MEDICAL CENTER, priority 2016, dated 2023).

Test system: Hep G2 cells
Experiment: Inhibitory activity against Hep G2 cells
Type: cell-based
Conditions: Hep G2 cells (liver cancer); data not shown
Excerpt: Hep G2 were purchased from ATCC and cultured in DMEM+sodium pyruvate with 10% FBS and 1% penicillin-streptomycin.

SMILES | concentration without any inhibitory activity
Clc1ccc2ncc(-c3cccc(NC4CCNCC4)n3)n2c1 [Compound I-2, 6-(6-chloroimidazo[1,2-a]pyridin-3-yl)-N-(piperidin-4-yl)pyridin-2-amine] | > 10 µM
COc1cc2ncc(-c3cccc(NC4CCNC4)n3)n2cc1-c1cnn(C)c1 (centres unmarked) [Compound I-24, 6-(7-methoxy-6-(1-methyl-1H-pyrazol-4-yl)imidazo[1,2-a]pyridin-3-yl)-N-(pyrrolidin-3-yl)pyridin-2-amine] | > 10 µM
